According to PMC3887210, “Conserved Distal Loop Residues in the Hsp104 and ClpB Middle Domain Contact Nucleotide-binding Domain 2 and Enable Hsp70-dependent Protein Disaggregation*” (The Journal of Biological Chemistry, 2013):

B1: Hsp104^A430W (natural protein)
chain: not shown
notes: Hsp104 of Saccharomyces cerevisiae with A430W in the middle domain distal loop; source: E. coli BL21-DE3 RIL, purified (Affi-Gel Blue, Resource Q anion exchange, size exclusion)
B2: Hsp104^L431W (natural protein)
chain: not shown
notes: Hsp104 of Saccharomyces cerevisiae with L431W in the middle domain distal loop; source: E. coli BL21-DE3 RIL, purified (Affi-Gel Blue, Resource Q anion exchange, size exclusion)
B3: Hsp104^D438W (natural protein)
chain: not shown
notes: Hsp104 of Saccharomyces cerevisiae with D438W in the middle domain distal loop; source: E. coli BL21-DE3 RIL, purified (Affi-Gel Blue, Resource Q anion exchange, size exclusion)

Molecular target: the molecule itself
Experiment: SEC; Superose 6 10/300; 35 uM monomer; 40 mM HEPES-KOH pH 7.4, 150 mM KCl, 10 mM MgCl2, 1 mM DTT; data not shown

Stoichiometry N, 6:
B1, B2, B3
